Reference: PMC4336329 (PLoS ONE, 2015)
Screen size: about 310,000 compounds; about 2,200 (0.71%) showed an effect of 50% or more. Effects have a minus sign here. This is one part of the list.

Each compound was assayed against human ether-à-go-go-related gene (hERG) potassium channel (human, UniProt Q12809) (assay: primary screen, population patch clamp on CHO cells stably expressing hERG).
human ether-à-go-go-related gene (hERG) potassium channel, sequence (Q12809 whole entry, looked up): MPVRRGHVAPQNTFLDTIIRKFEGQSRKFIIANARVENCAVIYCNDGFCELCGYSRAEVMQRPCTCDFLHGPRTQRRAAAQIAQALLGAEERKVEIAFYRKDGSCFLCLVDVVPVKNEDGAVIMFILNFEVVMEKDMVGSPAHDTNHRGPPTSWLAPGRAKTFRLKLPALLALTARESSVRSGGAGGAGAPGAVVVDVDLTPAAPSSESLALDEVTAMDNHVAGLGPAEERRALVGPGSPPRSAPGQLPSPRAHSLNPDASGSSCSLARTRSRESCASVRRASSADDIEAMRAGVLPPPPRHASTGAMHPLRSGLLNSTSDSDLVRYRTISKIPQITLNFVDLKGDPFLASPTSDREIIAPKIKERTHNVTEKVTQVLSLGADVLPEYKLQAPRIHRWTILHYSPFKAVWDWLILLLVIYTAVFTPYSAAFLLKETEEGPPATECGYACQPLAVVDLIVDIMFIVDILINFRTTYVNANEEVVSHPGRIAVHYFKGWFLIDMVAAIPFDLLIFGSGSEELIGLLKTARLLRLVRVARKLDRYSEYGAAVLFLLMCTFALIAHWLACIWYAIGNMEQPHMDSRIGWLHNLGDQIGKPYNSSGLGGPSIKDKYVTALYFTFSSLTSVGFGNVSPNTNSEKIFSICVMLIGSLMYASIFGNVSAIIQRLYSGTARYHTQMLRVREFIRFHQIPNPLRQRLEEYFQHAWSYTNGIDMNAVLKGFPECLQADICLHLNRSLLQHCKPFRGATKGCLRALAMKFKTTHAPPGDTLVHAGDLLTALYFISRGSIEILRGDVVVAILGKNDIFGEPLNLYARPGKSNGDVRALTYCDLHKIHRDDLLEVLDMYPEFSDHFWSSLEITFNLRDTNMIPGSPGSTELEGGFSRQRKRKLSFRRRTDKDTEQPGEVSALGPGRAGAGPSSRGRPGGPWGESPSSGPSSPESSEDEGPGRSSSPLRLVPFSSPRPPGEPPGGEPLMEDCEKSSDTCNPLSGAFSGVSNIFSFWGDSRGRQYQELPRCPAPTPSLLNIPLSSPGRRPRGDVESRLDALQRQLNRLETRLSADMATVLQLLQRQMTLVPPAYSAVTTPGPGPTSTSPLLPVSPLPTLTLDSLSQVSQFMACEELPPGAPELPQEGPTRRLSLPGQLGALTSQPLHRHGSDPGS
With `COC(=O)c1ccccc1NC(=O)c1cc(-c2ccc(O)cc2)on1` the “hERG current change (%, negative = inhibition) at 1uM” value was 5.09%.
In the case of `NC(=O)N/N=C/c1ccc([N+](=O)[O-])o1`, the “hERG current change (%, negative = inhibition) at 1uM” value is reported as 8.71%.
With `Cc1cccc(NC(=O)CN(C)S(=O)(=O)c2ccc3c(c2)n(C)c(=O)c(=O)n3C)c1C` the “hERG current change (%, negative = inhibition) at 1uM” value was 2.02%.
`CCN(C#N)c1nc(N(C)C)nc(N(C)C)n1` was tested, and the “hERG current change (%, negative = inhibition) at 1uM” value was -1.97%.
With `CCn1c(SCC(=O)Nc2cc(C)on2)nc2c([nH]c3ccccc32)c1=O` the “hERG current change (%, negative = inhibition) at 1uM” value was 11.6%.
In the case of `O=C(CN1CCSCC1)c1c[nH]c2ccccc12`, the “hERG current change (%, negative = inhibition) at 1uM” value is reported as 7.98%.
For `COc1ccc(-n2nc(C)cc2N)cc1`, the “hERG current change (%, negative = inhibition) at 1uM” value was 7.31%.
With `Cc1ccc(CNC(=O)c2sc3nc4c(c(C(F)(F)F)c3c2N)CCC4)cc1` the “hERG current change (%, negative = inhibition) at 1uM” value was -4.66%.
`NC1=NC2(CCCC2)N=C(Nc2ccccc2)N1` was tested, and the “hERG current change (%, negative = inhibition) at 1uM” value was 16.2%.
For `O=C(COc1ccc(S(=O)(=O)NC2CCCCC2)cc1)NC1CCCCC1`, the “hERG current change (%, negative = inhibition) at 1uM” value was -21.7%.
`COc1cc(C(=O)NS(=O)(=O)c2ccccc2C)ccc1Cc1cn(C)c2ccc(NC(=O)OC3CCCC3)cc12` was tested, and the “hERG current change (%, negative = inhibition) at 1uM” value was 2.86%.
In the case of `Cc1c(OCC(=O)N2CCC(C(=O)O)CC2)ccc2c1oc(=O)c1ccccc12`, the “hERG current change (%, negative = inhibition) at 1uM” value is reported as 6.5%.
In the case of `O=C(C1=C(O)/C(=C/c2ccc(O)cc2)CCC1)C(F)(F)F`, the “hERG current change (%, negative = inhibition) at 1uM” value is reported as 7.81%.
With `CN(C)CCNC(=S)Nc1ccc(Br)cc1` the “hERG current change (%, negative = inhibition) at 1uM” value was 12.3%.
With `O=C(CSc1nnnn1C1CCCC1)Nc1cccc(NC(=O)c2ccco2)c1` the “hERG current change (%, negative = inhibition) at 1uM” value was -17.9%.
With `O=C(NCc1ccc(C(F)(F)F)cc1)C1CC(c2cccc(F)c2)=NO1` (stereo not drawn) the “hERG current change (%, negative = inhibition) at 1uM” value was 14.8%.
With `COc1ccccc1CNC(=O)c1csc(Cc2ccc(Cl)cc2)n1` the “hERG current change (%, negative = inhibition) at 1uM” value was 5%.
`CCOc1cccc(OCCOCCN(C)C)c1.O=C(O)C(=O)O` was tested, and the “hERG current change (%, negative = inhibition) at 1uM” value was 5.73%.
`COC(=O)Cn1c2ccccc2c2nc3ccccc3nc21` was tested, and the “hERG current change (%, negative = inhibition) at 1uM” value was 16.1%.
With `O=C(Cn1cnc2c(cnn2-c2ccc(F)cc2)c1=O)NCc1ccco1` the “hERG current change (%, negative = inhibition) at 1uM” value was 7.09%.
With `O=C(COc1ccc(F)cc1)Nc1ccccc1N1CCOCC1` the “hERG current change (%, negative = inhibition) at 1uM” value was 0.229%.
With `COc1ccc(CCN2CC(C(=O)N3CCC(O)(c4ccccc4)CC3)CCC2=O)cc1` (stereo not drawn) the “hERG current change (%, negative = inhibition) at 1uM” value was 8.16%.
`COc1ccc(NC(=O)C2CC(=O)n3cnnc3S2)cc1` (stereo not drawn) was tested, and the “hERG current change (%, negative = inhibition) at 1uM” value was 3.46%.
In the case of `Nc1nnc(SCC(=O)NNC(=O)c2ccc(Cl)cc2)s1`, the “hERG current change (%, negative = inhibition) at 1uM” value is reported as 4.21%.
With `Cc1cccn2c(=O)c3cc(C(=O)NC4CCCC4)c(=N)n(C4CCCC4)c3nc12` the “hERG current change (%, negative = inhibition) at 1uM” value was -87%.
For `N#C/C(=C/c1ccc(F)cc1)S(=O)(=O)c1ccccc1`, the “hERG current change (%, negative = inhibition) at 1uM” value was 15.3%.
In the case of `Cn1nc(C(=O)Nc2c(-c3ccccc3)nc3sccn23)c2ccccc2c1=O`, the “hERG current change (%, negative = inhibition) at 1uM” value is reported as 11.3%.
For `CCN(CC)C(=O)C(=O)N/N=C/c1ccc(Cl)cc1Cl`, the “hERG current change (%, negative = inhibition) at 1uM” value was 15.5%.
In the case of `COc1ccc(CN2C(=O)c3cccnc3C2=O)cc1S(=O)(=O)N1CCOc2ccccc21`, the “hERG current change (%, negative = inhibition) at 1uM” value is reported as 8.41%.
`COc1ccc(NC(=O)C2CCC(CNS(=O)(=O)c3csc(C(N)=O)c3)CC2)cc1OC` (stereo not drawn) was tested, and the “hERG current change (%, negative = inhibition) at 1uM” value was 9.25%.
`O=C(NC1=NCCS1)c1cccc(NC(=O)c2ccco2)c1` was tested, and the “hERG current change (%, negative = inhibition) at 1uM” value was 4.96%.
With `O=c1[nH]cnc2c1N=C(c1cccc([N+](=O)[O-])c1)CC(c1ccccc1)N2` (stereo not drawn) the “hERG current change (%, negative = inhibition) at 1uM” value was 5.58%.
With `COc1cccc(NC(=S)NNC(=O)Cn2nc([N+](=O)[O-])cc2C)c1` the “hERG current change (%, negative = inhibition) at 1uM” value was 10.8%.
In the case of `Cc1ccccc1Oc1cccc(C(=O)/C(C#N)=C/N(C)C)c1`, the “hERG current change (%, negative = inhibition) at 1uM” value is reported as 2.42%.
In the case of `CN(C(=O)c1ccc(-c2ccccc2)cc1)C1CCCCC1`, the “hERG current change (%, negative = inhibition) at 1uM” value is reported as 8.17%.
`Cc1cc(C(=O)NN)c(C)o1` was tested, and the “hERG current change (%, negative = inhibition) at 1uM” value was 6.37%.
`COc1ccccc1Cn1c(=S)[nH]c2cc(C(=O)N3CCCC3)ccc2c1=O` was tested, and the “hERG current change (%, negative = inhibition) at 1uM” value was 15.5%.
In the case of `CCOC(=O)CSc1ccc(C(=O)NCCCN2CCOCC2)cc1[N+](=O)[O-]`, the “hERG current change (%, negative = inhibition) at 1uM” value is reported as 12.1%.
`O=C(Nc1cc([N+](=O)[O-])ccc1Cl)c1ccc2c(c1)OCO2` was tested, and the “hERG current change (%, negative = inhibition) at 1uM” value was 1.35%.
For `O=c1[nH]c(C2CCN(S(=O)(=O)c3ccc(S(=O)(=O)NC4CC4)cc3)CC2)nc2c1nnn2Cc1ccc(F)cc1`, the “hERG current change (%, negative = inhibition) at 1uM” value was 8.18%.
`CCN(c1ccccc1)S(=O)(=O)c1ccc(C(=O)OC(C)C(=O)NCCC2=CCCCC2)cc1` (stereo not drawn) was tested, and the “hERG current change (%, negative = inhibition) at 1uM” value was -0.469%.
In the case of `CCOC(=O)CCN(Cc1sccc1C)S(=O)(=O)c1ccc(F)cc1`, the “hERG current change (%, negative = inhibition) at 1uM” value is reported as 8.05%.
For `O=C(NCc1ccc2c(c1)OCO2)c1ccco1`, the “hERG current change (%, negative = inhibition) at 1uM” value was 6.56%.
With `CCCC(=O)NC(C)C(c1cccs1)N1CCN(c2ccccc2)CC1` (stereo not drawn) the “hERG current change (%, negative = inhibition) at 1uM” value was -1%.
In the case of `Cc1ccn2c(=O)nc(SCC(=O)N3CCC(Cc4ccccc4)CC3)nc2c1`, the “hERG current change (%, negative = inhibition) at 1uM” value is reported as -11.4%.
